# Test results from PubChem BioAssay AID1508642 (National Center for Advancing Translational Sciences (NCATS), 2021).
# About 200 (0.47%) of roughly 43,000 compounds were called active. Inconclusive results, whose numbers are uncertain, are shown with a selection of clear calls. Calls follow the shape of the dose curve; as a rule, active = well fitted cell-killing curve with a large enough effect; inconclusive = small, poorly fitted or top-dose-only effect, or effect the other way; inactive = flat fitted curve, though single readings scatter. Potencies beside an inconclusive call are fits to weak or partial responses and may not hold up.
# Assay: Cell viability qHTS assay in S16 Pmp22-F2sN cells; also: nearly all actives have a fitted effect of over 65% in size
# Details: S16 Pmp22-F2sN Schwann cells viability, CellTiter-Glo, 24 h; series mostly up to 57.5 µM
# Method in brief: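 S16 Pmp22-F2sN Schwann cells (500-1,000/well) in phenol-red-free DMEM with 10% FBS received 23 nL compound by pin tool for 24 h at 37 °C. Viability was then read as CellTiter-Glo luminescence after 15 min at room temperature.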
# Potency is read from the fitted curve at half-maximal effect; tags tell the direction and shape of the fitted curve.
row,Compound,Potency
1,COc1cccc(NC(=O)C2=C(C)C(=O)OC23CCN(C(C)=O)CC3)c1,inactive
2,Oc1ccc(NCc2ccccc2OCc2ccccc2F)cc1,active: 28.2 µM
3,CC(=O)c1ccc(NC(=O)CCCSc2nc(-c3ccco3)cc(C(F)(F)F)n2)cc1,"inconclusive: 31.6 µM [cytotoxic, single point]"
4,CCOC(=O)c1cccc(Nc2cc(-c3ccccc3)ncn2)c1,"inconclusive: 39.8 µM [cytotoxic, single point]"
5,CC(C)c1ccc(NC(=O)c2ccc(F)c(S(=O)(=O)N3CCc4ccccc4C3)c2)cc1,inactive
6,Cc1cccc(N2C(=O)CS(=O)(=O)C23C(=O)N(Cc2c(F)cccc2Cl)c2ccccc23)c1 (configuration not stated),inactive
7,O=C(O)CCCNc1cc(N2CCN(C3CCCCC3)CC2)c2noc3c2c1C(=O)c1ccccc1-3,"inconclusive: 39.8 µM [cytotoxic, single point]"
8,Cc1ccc2onc(CNC(=O)NCc3cccc(Cl)c3)c2c1,inactive
9,CCc1ccccc1NC(=O)Cn1nc(C(F)(F)F)c2c1CCCC2,"inconclusive: 0.447 µM [rising, full curve, poor fit]"
10,COc1ccc(NC(=O)CCCSc2nc(-c3ccco3)cc(C(F)(F)F)n2)c(OC)c1,"inconclusive: 22.4 µM [cytotoxic, partial curve, poor fit]"
11,COc1cccc(OCc2nc3ccccc3n2Cc2ccccc2C)c1,"inconclusive: 39.8 µM [cytotoxic, single point]"
12,COc1cccc(-c2ccc3c(N)c(C(=O)c4ccc(Br)cc4)sc3n2)c1,"inconclusive: 31.6 µM [cytotoxic, single point]"
13,Cc1ccc(-c2[nH]c3ccccc3c2SCCNC(=O)c2ccc(S(=O)(=O)N(C)C)cc2)cc1,"inconclusive: 35.5 µM [cytotoxic, single point]"
14,Cc1ccc(NC(=O)C(=O)NCC(c2cccnc2)N2CCOCC2)cc1Cl (configuration not stated),"inconclusive: 8.91 µM [cytotoxic, partial curve, poor fit]"
15,CCCCOc1ccc(C(C)NC(=O)c2cccc(Nc3nc4ccccc4n4nnnc34)c2)cc1 (configuration not stated),"inconclusive: 5.01 µM [cytotoxic, full curve]"
16,COc1ccc(Cl)cc1NC(=O)C1CCN(c2nnc(C)c3c(C)n(-c4ccccc4)nc23)CC1,inactive
17,Cc1cccc(N2CCN(C(=O)c3ccc(CS(=O)c4cccc(Cl)c4)o3)CC2)c1C (configuration not stated),"inconclusive: 7.08 µM [rising, single point]"
18,COc1ccc(-c2nc3ccc(NS(=O)(=O)c4ccccc4)cc3o2)cc1,"inconclusive: 28.2 µM [cytotoxic, single point]"
19,O=C(Nc1onc2c1CCCC2)c1ccc(Cl)cc1,"inconclusive: 2.51 µM [cytotoxic, full curve]"
20,Cc1ccccc1NC(=O)c1c2c(nc3ccccc13)C(=O)N(C1CCCCC1)C2,inactive
21,O=S(=O)(c1ccccc1)c1nnn2c1nc(Nc1ccccc1)c1cc(Cl)ccc12,"inconclusive: 2 µM [cytotoxic, partial curve, poor fit]"

row,Compound,Potency
1,CCOc1ccc(N(C)C(=O)C2CCN(S(=O)(=O)c3ccc4c(c3)CCCN4C(C)=O)CC2)cc1,"inconclusive: 39.8 µM [cytotoxic, single point]"
2,CCCCOc1nnc(-c2ccc(OCC)cc2)c2ccccc12,"inconclusive: 39.8 µM [cytotoxic, single point]"
3,COc1ccc(CCNC(=O)CCc2cn(Cc3ccc(C)cc3)c3ccccc23)cc1OC,"inconclusive: 25.1 µM [rising, partial curve, poor fit]"
4,Cc1c(Cl)cccc1Nc1nc(N)nc(CSc2nc3ccccc3s2)n1,"inconclusive: 25.1 µM [cytotoxic, single point]"
5,CCOC(=O)c1c(C)[nH]c(C)c1S(=O)(=O)N1CCC(C(=O)N2CCN(c3cc(C)ccc3C)CC2)CC1,"inconclusive: 39.8 µM [cytotoxic, single point]"
6,CC1CCN(S(=O)(=O)c2ccc3c(c2)N(CC(=O)NCCc2ccc(Cl)cc2)C(=O)CO3)CC1,"inconclusive: 39.8 µM [cytotoxic, single point]"
7,CCCc1cc(=O)n2[nH]c(NCc3ccc(CC)cc3)nc2n1,inactive
8,CCCS(=O)(=O)c1c(Nc2ccccc2C)sc(C(=O)c2ccccc2)c1N,"inconclusive: 20 µM [cytotoxic, single point]"
9,Cc1ccc(NS(=O)(=O)c2cc(Br)cc3c2N(C(=O)C2CC2)CC3)cc1C,"inconclusive: 2.24 µM [cytotoxic, full curve, poor fit]"
10,CCOc1ccccc1CNC(=O)CCn1ccc2cc(S(=O)(=O)N3CCC(C)CC3)ccc21,"inconclusive: 35.5 µM [cytotoxic, single point]"
11,CC(=O)N(Cc1cccnc1)c1nc2c(C)c(C)ccc2s1,"inconclusive: 39.8 µM [cytotoxic, single point]"
12,COc1cc2[nH]c(=O)n(CCCCCC(=O)N3CCN(c4cccc(C(F)(F)F)c4)CC3)c(=O)c2cc1OC,"inconclusive: 35.5 µM [cytotoxic, single point]"
13,Cn1c(NCCO)nc2c1c(=O)n(Cc1ccccc1Cl)c(=O)n2C,inactive
14,Cc1cccc(NC(=O)c2c(NC(=O)C(F)(F)F)sc3c2CCCCC3)c1,"inconclusive: 12.6 µM [cytotoxic, partial curve, poor fit]"
15,O=S(=O)(Nc1ccc2oc3c(c2c1)CCCC3)c1cc(Cl)ccc1Cl,inactive
16,COc1ccc(C2Sc3ccccc3NC3=C2C(=O)c2ccccc23)c(OC)c1OC (configuration not stated),"inconclusive: 3.16 µM [cytotoxic, full curve, poor fit]"
17,COc1ccc(-c2onc(C)c2C)cc1S(=O)(=O)N1c2ccccc2CC1C (configuration not stated),"inconclusive: 20 µM [cytotoxic, single point]"
18,Cc1ccc(NC(=O)CSc2nc3ncccc3[nH]2)cc1F,inactive
19,O=C(Nc1cccc(Br)c1)N1CCC(CN2CCCCC2)CC1,inactive
20,Cc1ccc(S(=O)(=O)Cc2nc(-c3ccc(C(=O)NCc4ccccc4)cc3)oc2C)cc1,inactive
21,CC(=O)c1ccc(NC(=O)c2c3c(nc4ccccc24)C(=O)N(C2CCCCC2)C3)cc1,"inconclusive: 22.4 µM [cytotoxic, partial curve, poor fit]"

row,Compound,Potency
1,CCOc1ccc(-c2nonc2NC(=O)c2oc3ccc(Br)cc3c2C)cc1,inactive
2,COc1ccc(Cl)cc1NC(=O)CCS(=O)(=O)c1nc(-c2cccs2)cc(C(F)(F)F)n1,"inconclusive: 39.8 µM [cytotoxic, single point]"
3,COc1ccccc1-c1cc2nc(C)c(CCC(=O)Nc3ccc(Br)c(C)c3)c(C)n2n1,"inconclusive: 2 µM [rising, partial curve, poor fit]"
4,O=C(NC1(C(F)(F)F)C(=O)Nc2c1c(=O)[nH]c(=O)n2CCc1ccccc1)c1ccc(Cl)cc1Cl (configuration not stated),inactive
5,CCn1cc(C(=O)N2CCN(c3cccc(C(F)(F)F)c3)CC2)c2cc(OC)c(OC)cc2c1=O,"inconclusive: 22.4 µM [rising, partial curve, poor fit]"
6,CC(C)COc1ccc(C(=O)Nc2cccc(-c3nc4ccccc4[nH]3)c2)cc1,"inconclusive: 39.8 µM [cytotoxic, single point]"
7,Cn1c(=O)c2c(nc(NCc3ccccc3)n2Cc2ccccc2)n(C)c1=O,"inconclusive: 14.1 µM [cytotoxic, single point]"
8,CCOC(=O)c1cnc2ccc(OC)cc2c1NCCc1ccccc1,"inconclusive: 39.8 µM [cytotoxic, single point]"
9,CCOC(=O)C1CCCN(C(=O)c2nn(-c3ccc(OC)cc3)c(=O)c3c2c2ccccc2n3C)C1 (configuration not stated),"inconclusive: 39.8 µM [rising, single point]"
10,CCc1cccc(NC(=O)C2CCN(C(=O)c3cnn(-c4ccccc4)c3-n3cccc3)CC2)c1,"inconclusive: 25.1 µM [cytotoxic, single point]"
11,CCc1ccc(-n2nc(C)c3c(C)cc(=O)n(CC(=O)N4CCCc5ccccc54)c32)cc1,"inconclusive: 3.16 µM [cytotoxic, single point]"
12,Cc1c(Cl)cccc1-c1ccc(C(=O)Nc2ccc(F)cc2)o1,"inconclusive: 6.31 µM [rising, partial curve, poor fit]"
13,CCOC(=O)c1c(S(=O)(=O)N2CCCC(C(=O)NCc3ccc(Cl)cc3)C2)c(C)n(C)c1C (configuration not stated),"inconclusive: 7.94 µM [cytotoxic, full curve]"
14,COc1ccccc1OCC(=O)NCC(c1ccc(Cl)cc1)N1CCCCC1 (configuration not stated),inactive
15,Cc1c(-c2ccc(Br)cc2)c(=O)oc2ccc(OC(=O)N3CCOCC3)cc12,"inconclusive: 5.62 µM [cytotoxic, partial curve, poor fit]"
16,CCN(CC)C(=O)CSc1nc(-c2ccccc2F)nc2c1Cc1c(CO)cnc(C)c1O2,"inconclusive: 25.1 µM [cytotoxic, partial curve, poor fit]"
17,COc1cc(NS(=O)(=O)c2ccc3[nH]c4c(c3c2)CCCCCC4)cc(OC)c1,inactive
18,CCc1ccc(NC(=O)C(CC)n2c(=O)c(C(F)(F)F)nc3ccccc32)cc1 (configuration not stated),"inconclusive: 1.78 µM [cytotoxic, full curve, poor fit]"
19,COc1cccc(NS(=O)(=O)c2ccc(-c3cc(C)no3)s2)c1,"inconclusive: 39.8 µM [cytotoxic, single point]"
20,Cc1ccc(-c2nnc(Nc3ccc(O)cc3)c3ccccc23)cc1S(=O)(=O)N1CCOCC1,"inconclusive: 20 µM [cytotoxic, partial curve, poor fit]"
